Reference: PubChem BioAssay AID485294 (National Center for Advancing Translational Sciences (NCATS), 2010)
Out of some 370,000 compounds screened, about 150 (0.041%) were called active. Inconclusive means that the source gave no clear call. Such entries were picked first, then a sample of the others. The call rests on the fitted dose curve; in most records, active means well fitted inhibition curve with a large enough effect; inconclusive means small, poorly fitted or top-dose-only effect; inactive means flat fitted curve, though single readings scatter. No potency is given beside an inconclusive call; the fits are too rough.

Target: Beta-lactamase (Escherichia coli (strain K12)) (UniProt P00811)
UniProt P00811, sequence (P00811 whole entry, looked up): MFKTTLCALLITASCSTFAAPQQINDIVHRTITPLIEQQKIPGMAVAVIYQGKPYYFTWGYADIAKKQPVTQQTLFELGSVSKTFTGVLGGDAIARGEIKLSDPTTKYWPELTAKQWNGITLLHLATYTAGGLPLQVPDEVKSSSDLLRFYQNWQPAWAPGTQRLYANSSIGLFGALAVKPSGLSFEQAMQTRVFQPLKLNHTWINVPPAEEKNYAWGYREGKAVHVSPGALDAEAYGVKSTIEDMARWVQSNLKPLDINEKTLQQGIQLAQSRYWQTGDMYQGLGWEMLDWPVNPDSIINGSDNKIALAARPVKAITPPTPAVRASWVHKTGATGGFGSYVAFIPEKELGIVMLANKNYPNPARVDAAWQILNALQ
Assay: qHTS Inhibitors of AmpC Beta-Lactamase (assay with detergent); further: nearly all actives have a fitted effect of over 25% in size;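 on activity change, negative = inhibition: 0% = no-compound wells and -100% = no-enzyme wells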
Conditions: AmpC hydrolysis of nitrocefin, absorbance 480 nm, 0.01% Triton; activity change, negative = inhibition: at 114 µM (top of the series)
Procedure, shortened: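 20 mM phosphate pH 7.0 + 0.01% (detergent screen) or 0.0001% Triton X-100; 5.3 nM AmpC reagent; cpd preinc 15 min RT; nitrocefin (800 uM stock) to start; A480 q20 s × 4 min; Activity was normalised to no-enzyme and no-compound control wells.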
Potency means the concentration at half of the fitted maximal effect; tags describe the fitted curve by direction and shape.

Structure (SMILES) | Potency | activity change, negative = inhibition
Cc1ccc(-n2[nH]c(C)c(/C=C3/C=Nc4ccccc43)c2=O)cc1C | inconclusive [inhibitor, partial curve, poor fit] | 
O=C(Nc1ccccc1)Oc1ccccc1 |  | inactive: -7.19%
COc1ccc(-c2[nH]nc3c2C(c2ccoc2)C(C#N)=C(N)O3)cc1 (stereo not drawn) | inconclusive [inhibitor, full curve, poor fit] | 
CCN(CC)C(=O)CSc1nnc(-c2ccco2)n1Cc1ccco1 |  | inactive: -0.288%
CC1CCN(C2CCN(S(=O)(=O)c3ccc(F)cc3)CC2)CC1 | inconclusive [inhibitor, partial curve] | 
Cc1cccc(C)c1Nc1nnc(SCc2cn3cccc(C)c3n2)s1 |  | inactive: -11.3%
CC1Cn2cc(C(=O)Nc3ccccc3C(F)(F)F)c(=O)c3c(Cl)ccc(c32)O1 (stereo not drawn) | inconclusive [inhibitor, full curve, poor fit] | 
Cc1noc(C)c1COc1ccccc1C(=O)N(C)CC(=O)Nc1ccc(F)cc1 | inconclusive [inhibitor, full curve, poor fit] | 
CCC(=O)OCC(=O)[C@@]1(OC(=O)CC)[C@@H](C)C[C@H]2[C@@H]3CCC4=CC(=O)C=C[C@]4(C)[C@@]3(Cl)[C@@H](O)C[C@@]21C | inconclusive [inhibitor, full curve, poor fit] | 
Cc1ccc(-n2ncc3c(SCc4cccc(C)c4)ncnc32)cc1 | inconclusive [inhibitor, full curve, poor fit] | 
Cc1ccc(S(=O)(=O)N2CCn3cccc3C2C)cc1 (stereo not drawn) | inconclusive [inhibitor, full curve, poor fit] | 
CCCCN1C(=O)CCC(C(=O)O)C1c1ccc(OC)cc1 (stereo not drawn) | inconclusive [inhibitor, full curve, poor fit] | 
CCc1c(C)nc2ncnn2c1Nc1ccc(C(C)=O)cc1 |  | inactive: 2.23%
Cc1nc(S(=O)(=O)c2ccc(Cl)cc2)c(N(C)C)o1 |  | inactive: -4.74%
c1ccc(CSc2nnc(-c3ccncc3)o2)cc1 |  | inactive: 2.31%
CCNS(=O)(=O)c1ccc2c3c(cccc13)C(=O)N2 | inconclusive [inhibitor, full curve, poor fit] | 
O=C(O)CCCCCCCCc1cn(CCc2c[nH]c3ccccc23)nn1 | inconclusive [inhibitor, full curve, poor fit] | 
Clc1ccc(CN2C3=NCCN3c3ccccc32)cc1Cl | inconclusive [inhibitor, partial curve, poor fit] | 
C/C(=N\NC(=O)C(=O)Nc1cccc(C(F)(F)F)c1)c1ccc(Cl)s1 |  | inactive: -5.69%
CC1=C(C(=O)NCc2ccc3c(c2)OCO3)C2(CCC(C)CC2)OC1=O (stereo not drawn) | inconclusive [inhibitor, full curve] | 
COc1ccc(-c2nnc(SC3CCOC3=O)n2C2CCCCC2)cc1OC (stereo not drawn) | inconclusive [inhibitor, full curve] | 
Cc1ccc(N2C(=O)C3CC3C2=O)cc1 (stereo not drawn) | inconclusive [inhibitor, full curve] | 
COc1ccc(-n2c(SCC(=O)Nc3ccc(NC(C)=O)cc3)nc3c([nH]c4ccccc43)c2=O)cc1OC | inconclusive [inhibitor, single point] | 

Structure (SMILES) | Potency | activity change, negative = inhibition
CCC(C)Sc1nnc(Cc2cc(=O)[nH]c(=O)[nH]2)n1-c1ccc(OC)cc1 (stereo not drawn) | inconclusive [inhibitor, partial curve, poor fit] | 
COc1ccc(NC(=S)Nn2cnnc2)c(OC)c1 |  | inactive: 0.123%
O=C(N/N=C/c1cccs1)[C@H]1C[C@@H]1c1ccccc1 | inconclusive [inhibitor, partial curve, poor fit] | 
CCOc1cccc2cc(-c3csc(NC(=O)CCC(=O)NCCCN4CCC(C)CC4)n3)c(=O)oc12 |  | inactive: -0.686%
CC(NC(=O)c1cc(-c2ccc(Cl)cc2)on1)c1ccccc1 (stereo not drawn) |  | inactive: -7.25%
O=[N+]([O-])c1ccc2nc(-c3ccccc3)cc(-c3ccccc3)c2c1 |  | inactive: 0.14%
CCc1cccc(NC(=O)c2cccc3c2C(=O)N(C2CCCCC2)C3)c1 | inconclusive [inhibitor, full curve] | 
Cc1ccc(N=c2sc(C)c(C)n2C)cc1 |  | inactive: -14.4%
O=C(O)C1C2C=CC(C2)C1C(=O)NCc1ccccc1 (stereo not drawn) | inconclusive [inhibitor, single point] | 
O=C(COc1ccc(S(=O)(=O)N2CCCC2)cc1Cl)NC1CC1 | inconclusive [inhibitor, full curve, poor fit] | 
COc1nnc(-c2ccc(N3CCCCC3)c(NC(=O)c3ccccc3)c2)c2ccccc12 |  | inactive: 26.2%
O=S(=O)(Nc1ccc(N2CCCCC2)cc1)c1ccc(F)cc1 |  | inactive: -6.42%
CC(=O)Nc1cc(Cl)c(N=Cc2ccc(O)cc2O)cc1Cl | inconclusive [inhibitor, full curve, poor fit] | 
Cc1ccc(C(=O)N/C(=C\c2ccco2)C(=O)N2CCOCC2)cc1C | inconclusive [inhibitor, partial curve] | 
CCOC(=O)c1c(C)oc2nc(C)nc(N3CCN(c4cccc(C)c4C)CC3)c12 |  | inactive: 25.7%
COc1ccc(C(CNC(=O)c2oc3ccc(OC)cc3c2C)N2CCCC2)cc1 (stereo not drawn) | inconclusive [inhibitor, full curve, poor fit] | 
C/C(=N\Nc1nc2ccccc2[nH]1)c1ccccn1 |  | inactive: -4.53%
Cc1cc(Br)ccc1OCCCCN1CCCCC1 |  | inactive: -1.49%
O=C(Nc1ccc(-n2cccc2)cc1)C1CC1 | inconclusive [inhibitor, full curve, poor fit] | 
CCC(=O)N1CCc2cc(S(=O)(=O)NC(C(=O)NCc3ccc(F)cc3)C(C)C)ccc21 (stereo not drawn) |  | inactive: -1.2%
O=c1oc2c(CN3CCOCC3)c(O)ccc2c2ccccc12 | inconclusive [inhibitor, full curve] | 
CC1CC1C(=O)OCC(=O)N(C)c1c(N)n(Cc2ccccc2)c(=O)[nH]c1=O (stereo not drawn) | inconclusive [inhibitor, partial curve, poor fit] | 
CCCCN(CC)C(=O)c1ccc(-c2ccccc2)cc1 |  | inactive: -1.56%

Structure (SMILES) | Potency | activity change, negative = inhibition
O=C(COC(=O)c1ccccc1SCC(=O)NC1CCCCC1)NC1CCCCC1 | inconclusive [inhibitor, single point] | 
CCc1c(C)c(C#N)c2nc3ccccc3n2c1-n1nc(C)cc1C | inconclusive [inhibitor, full curve, poor fit] | 
O=C(Nc1nc2ccccc2[nH]1)c1ccccc1F | inconclusive [inhibitor, single point] | 
Cc1nc2c(-c3ccccc3)cnn2c(N)c1-c1ccccc1 |  | inactive: -2.69%
Cn1c(=O)cc(OCC(=O)N2CCN(Cc3ccc4c(c3)OCO4)CC2)c2ccccc21 | inconclusive [inhibitor, partial curve] | 
COc1ccc(-c2cc(C(=O)O)c3ccccc3n2)c(OC)c1 | inconclusive [inhibitor, full curve, poor fit] | 
CCOC(=O)CN1CC23C=CC(O2)C(C(=O)NC2CCCCC2)C3C1=O (stereo not drawn) | inconclusive [inhibitor, full curve] | 
COc1ccc(C2CC(=O)Nc3sc(=N)c4c(N)c(C#N)c(N)nc4c32)cc1OC (stereo not drawn) | inconclusive [inhibitor, single point] | 
O=C(CCN1C(=O)S/C(=C\C=C\c2ccccc2)C1=O)Nc1ccc(O)cc1 |  | inactive: -8.85%
O=C(NCc1cccs1)C1CCN(c2nc3ccccc3o2)CC1 | inconclusive [inhibitor, full curve] | 
O=C(O/N=C(\c1ccccc1)c1ccccn1)c1cccc2ccccc12 | inconclusive [inhibitor, full curve] | 
O=C(c1cccc(S(=O)(=O)Nc2ccc(Br)cc2)c1)N1CCCC1 | inconclusive [inhibitor, full curve, poor fit] | 
CCc1nnc(NS(=O)(=O)c2ccc(NC(=O)CCC(=O)O)cc2)s1 | inconclusive [inhibitor, partial curve, poor fit] | 
Cc1nc2ccc(N)cc2s1 | inconclusive [inhibitor, full curve] | 
CC(C)(C)NS(=O)(=O)c1cccc(S(=O)(=O)c2cccc(S(=O)(=O)NC(C)(C)C)c2)c1 | inconclusive [inhibitor, full curve, poor fit] | 
COc1ccccc1N1CCN(Cc2nc3ccccc3c(=O)n2CC(C)=O)CC1 | inconclusive [inhibitor, full curve, poor fit] | 
COc1ccc(NC(=O)CCCCCN2C(=O)CCC2=O)cc1Cl | inconclusive [inhibitor, partial curve, poor fit] | 
Cc1cc2c(cc1C)NC(c1c(C)n(C)n(-c3ccccc3)c1=O)C1=C(CC(C)(C)CC1=O)N2 (stereo not drawn) |  | inactive: -8.64%
CC(C)C1O/C(=N/C(=O)Nc2ccc(Cl)c(Cl)c2)NC1=O (stereo not drawn) | inconclusive [inhibitor, single point] | 
Brc1ccc(N=C/C=C/C=C/Nc2ccc(Br)cc2)cc1 | inconclusive [inhibitor, full curve, poor fit] | 
COc1cccc(CNC(=O)C(=O)NCCC2CCCCN2S(=O)(=O)c2cccs2)c1 (stereo not drawn) | inconclusive [inhibitor, full curve, poor fit] | 
NCCCC[C@@H]1NC(=O)c2cc([N+](=O)[O-])cc(I)c2SC[C@@H](C(N)=O)NC(=O)[C@H](Cc2ccc(O)cc2)NC1=O | inconclusive [inhibitor, partial curve, poor fit] | 
